Data published in PubChem BioAssay AID485344 (National Center for Advancing Translational Sciences (NCATS), 2010).
About 6,900 (2%) of roughly 340,000 compounds were called active. Rule as the data show it: active = inhibition above about 30%; inactive = below that, where a call was filed. The list shows a part of the results, in another mix than the full data. Entries without a call were filed so in the source.

These compounds were tested against D(2) dopamine receptor (Homo sapiens) (UniProt P14416) (assay: HTS Assay for Allosteric Antagonists of the Human D2 Dopamine Receptor: Primary Screen for Antagonists). Settings: HEK293 TREx D2 cells, calcium flux, dopamine EC80; at 10 µM; stronger effect = higher value.
UniProt P14416, sequence (P14416 whole entry, looked up): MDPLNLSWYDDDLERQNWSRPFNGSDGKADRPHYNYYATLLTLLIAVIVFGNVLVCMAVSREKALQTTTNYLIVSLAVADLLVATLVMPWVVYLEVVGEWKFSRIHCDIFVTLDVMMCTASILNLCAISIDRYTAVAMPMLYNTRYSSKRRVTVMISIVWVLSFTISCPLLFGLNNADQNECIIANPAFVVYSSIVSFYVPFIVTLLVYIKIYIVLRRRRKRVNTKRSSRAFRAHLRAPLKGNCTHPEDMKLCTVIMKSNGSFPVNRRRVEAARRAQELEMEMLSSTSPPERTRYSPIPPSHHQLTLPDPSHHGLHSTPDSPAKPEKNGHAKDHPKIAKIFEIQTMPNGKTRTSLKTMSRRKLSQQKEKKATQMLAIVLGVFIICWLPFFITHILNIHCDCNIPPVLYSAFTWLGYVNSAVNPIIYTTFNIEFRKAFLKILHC
In short: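 Tetracycline-induced HEK293 TREx cells expressing D2 receptor forced-coupled to calcium signalling, loaded with no-wash calcium dye. Compounds added and calcium flux read 180 s, then dopamine added at EC80 and read a further 180 s.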
Also: 0% is about no effect.

Point of comparison: `Cc1cccn2c(=O)c3cc(C(=O)NCc4ccccc4)c(=N)n(CCOCCO)c3nc12`, inhibition -18.6%. Against it:
- O=C(CC1C(=O)OCCN1Cc1ccccc1)Nc1cccc(C(F)(F)F)c1 (centres undefined) — higher, 7.48%
- CC(=O)N1c2ccc(S(=O)(=O)N3CCCCCC3)cc2CC1C(=O)NCc1ccc(Cl)cc1 (centres undefined) — higher, 4.33%
- COc1cccc(CNC(=O)C2CCN(S(=O)(=O)c3cn(C)cn3)CC2)c1 — higher, 8.31%
- O=C(Cn1cc(SCc2ccc(C(F)(F)F)cc2)c2ccccc21)N1CCCC1 — higher, 8.33%
- CCCOc1ccc(-c2nonc2NC(=O)c2oc3ccc(C)cc3c2C)cc1OCCC — higher, 0.893%
- CCOC(=O)N1CCC(NC(=O)c2cnn(-c3cccc(Cl)c3C)c2C2CCN(C(=O)OC(C)(C)C)CC2)CC1 — higher, -6.01%
- COc1ccc(NC(=O)CSc2oc(-c3ccco3)nc2S(=O)(=O)c2ccc(Br)cc2)c(OC)c1 — higher, -18.2%
- CCc1ccc2oc(-c3cc(NC(=O)C(C)C)cc(C)c3O)nc2c1 — higher, -6.14%
- CC(C)Cn1c(=O)c2sccc2n2c(CCCC(=O)NCc3ccccc3Cl)nnc12 — higher, -1.42%
- Cc1cccc(-c2nc3c4ccccc4nc(NCc4ccc(Cl)cc4)n3n2)c1 — higher, 11%
- CC(=O)c1ccc(NC(=O)CSc2cn(CC(=O)N3CCCCCC3)c3ccccc23)cc1 — lower, -20.7%
- Cc1ccc(C)c(NC(=O)Cn2cc(C(=O)c3ccc(Cl)cc3)c(=O)c3ccc(C)nc32)c1 — higher, 0.641%
- CC1CCN(S(=O)(=O)c2ccc(C(=O)Nc3sc4c(c3C(N)=O)CC(C)(C)NC4(C)C)cc2)CC1 — higher, 6.67%
- Cc1cccc(C)c1-n1ncc(C(=O)N2CCN(c3ccccn3)CC2)c1C1CCN(C(=O)OC(C)(C)C)CC1 — higher, -8%
- COc1cc(NC(=O)CSc2nc(-c3ccc(C)cc3)nc3c2Cc2ccccc2O3)cc(OC)c1 — higher, -18.4%
- N#Cc1ccc(CSc2nc3c(c(=O)[nH]2)CCC3)cc1 — higher, 10.1%
- CCC(=O)Nc1ccc(-c2nnc3c4ccccc4c(C)nn23)cc1 — higher, -5.85%
- O=C(NCc1ccccc1)c1ccc2c(c1)CCN2S(=O)(=O)c1ccccc1 — higher, -7.4%
- CCOC(=O)c1[nH]c(C)c(CCC(=O)NCc2ccccc2Cl)c1C — higher, 10.8%
- CNC(=O)c1ccc(Nc2nnc(-c3ccc(C)c(S(=O)(=O)N(C)C)c3)c3ccccc23)cc1 — higher, 0.654%
- CCCc1ccc(S(=O)(=O)N2CCC(Oc3ccc(-n4cnnn4)cc3)CC2)cc1 — higher, 7.81%
- Cc1cc(C)cc(OCCCn2c(CCNC(=O)C3CCCCC3)nc3ccccc32)c1 — higher, -14.1%
- CCCCC(CC)CNC(=O)C1CCC(CNS(=O)(=O)c2cccc3nsnc23)CC1 (centres undefined) — higher, 2.43%
- CCC(=O)N1c2ccc(S(=O)(=O)N3CCC(C)CC3)cc2CC1C (centres undefined) — higher, 21.5%
- COc1ccc(CCNC(=O)CCCn2c(=O)c3ccccc3n(Cc3c(C)cc(C)cc3C)c2=O)cc1OC — higher, -9.64%
- CCc1ccccc1NC(=O)CSc1nc(-c2ccccc2OC)nc2c1Cc1c(CO)cnc(C)c1O2 — higher, 14.6%
- COC(=O)C(CCSC)NC(=O)c1cc2c(n(-c3ccc(C)cc3)c1=O)CC(C)(C)CC2=O (centres undefined) — higher, -9.05%
- CC(=O)c1cc(C(=O)Nc2cc(C)cc(C)c2)c2ccccn12 — higher, 13.5%
- Cc1ccc2c(c1)cc1c(=O)n(CC(=O)NC3CCCCC3)nc(C)n12 — higher, 1.92%
- CCOC(=O)CC1c2cc(OCC)c(OCC)cc2CCN1C(=O)Nc1cccc(Cl)c1 (centres undefined) — higher, 6.18%
- Cc1ccc(S(=O)(=O)c2nc(-c3cccc(C)c3)oc2N2CCN(c3ccccc3)CC2)cc1 — higher, 1.68%
- Cc1ccc(CNC(=O)c2ccc3c(=O)n(-c4ccccc4)c(=O)[nH]c3c2)cc1 — higher, -0.496%
- CCCSc1ncc(Cl)c(C(=O)Nc2nc3ccc(OCC)cc3s2)n1 — higher, -1.95%
- COC(=O)c1sc2cccc(F)c2c1S(=O)(=O)N1CCN(c2ccc(F)cc2)CC1 — higher, 5.31%
- Cc1nc2nc(SCC(=O)NCCc3ccc(Cl)cc3)nn2c(C)c1Cc1ccccc1 — higher, -4.48%
- COc1cc(OC)c(NC(=O)NCc2ccc3c(c2)CCN3C(=O)c2ccccc2)cc1Cl — higher, 7.52%
- COc1ccc(NC(=O)CSc2nc3c(oc4ccccc43)c(=O)n2-c2ccc(C)c(C)c2)cc1 — higher, 4.71%
- CCOC(=O)c1c(NC(C)=O)c2c3c(sc2n1Cc1nc(-c2ccccc2C)oc1C)CCCC3 — higher, -13.8%
- O=C(Nc1nc2ccc(F)cc2s1)c1nc(S(=O)(=O)Cc2ccccc2)ncc1Cl — higher, -1.13%
- CC1CN(C(=O)CCC(=O)NCc2ccc(F)cc2)c2cc(Cl)ccc2O1 (centres undefined) — higher, 10.4%
- O=C(CN1C(=O)CCSc2ccccc21)Nc1ccccc1F — higher, -2.98%
- CCOc1ccc(CCNC(=O)C2COc3ccccc3C2)cc1OCC (centres undefined) — higher, -2.89%
- CC(C)CCNC(=O)C1CCC(Cn2c(=O)c3sccc3n(CC(=O)NC(C)C)c2=O)CC1 (centres undefined) — higher, 2.95%
- O=C(Cn1c(=O)n(-c2ccc(F)c(Cl)c2)c(=O)c2sc3ccccc3c21)NC1CCCC1 — higher, -10.2%
- Cc1ccc(-n2c(=O)c3oc4ccccc4c3n(Cc3ccccc3F)c2=O)cc1C — higher, 2.32%
- CCC(C)NC(=O)C(=O)Nc1c2c(nn1-c1ccccc1)CS(=O)(=O)C2 (centres undefined) — higher, -7.3%
- Cc1ccc(CNC(=O)Cn2cc(C(=O)c3ccc(F)cc3)c(=O)c3ccc(C)nc32)cc1 — higher, -0.363%
- CCOC(=O)C1CCN(C(=O)C2CCN(C3=NS(=O)(=O)C(c4ccc(C)c(C)c4)=C3C)CC2)CC1 — higher, 18.3%
- CCc1ccc(Cc2cnc(NC(=O)c3ccc4c(c3)CC(c3ccccc3)OC4=O)s2)cc1 (centres undefined) — higher, 2.11%
- Cc1cccc(C2CC(=O)Oc3c2c(=O)n(C)c2ccccc32)c1 (centres undefined) — higher, 6.1%
- CC(CC(=O)Nc1ccc(Br)cc1F)S(=O)(=O)c1ccc2c(c1)NC(=O)CO2 (centres undefined) — higher, 10%

For `CC1CCN(C(=O)COC(=O)c2cccc(S(=O)(=O)N(C)c3ccccc3)c2)CC1`, the inhibition was active: 43.3%.
With `COc1ccc(CNC(=O)/C(C)=C\C(=O)O)cc1` the inhibition was active: 36.3%.
`O=c1c2ccc(Cl)cc2[nH]c(=S)n1CCCN1CCOCC1` was tested, and the inhibition was active: 33.5%.
In the case of `CCOC(=O)c1ccc(NC(=O)N2CCN(C3CCCCC3)CC2)cc1`, the inhibition is reported as active: 34.4%.
`COc1cccc(OC)c1Oc1ccc(C(F)(F)F)cn1` was tested, and the inhibition was active: 66.1%.
For `COCCn1c(=O)[nH]c2cc(C(=O)NCCCN3CCN(c4ccc(F)cc4)CC3)ccc2c1=O`, the inhibition was active: 58%.
For `COc1cc2c(cc1OC)C1C/C(=N\O)C(CC(C)C)CN1CC2` (centres undefined), the inhibition was active: 59.7%.
